From the supplement of paper PMC12217912
The other results are listed elsewhere or left out. Sequences were assembled here from the parent chain. Values near 0.05 are background.

B1: TEV protease; numbered along this chain (parent)
chain: MGESLFKGPRDYNPISSSICHLTNESDGHTTSLYGIGFGPFIITNKHLFRRNNGTLVVQSLHGVFKVKDTTTLQQHLVDGRDMIIIRMPKDFPPFPQKLKFREPQREERICLVTTNFQTKSMSSMVSDTSCTFPSGDGIFWKHWIQTKDGQCGSPLVSTRDGFIVGIHSASNFTNTNNYFTSVPKNFMELLTNQEAQQWVSGWRLNADSVLWGGHKVFMVKPEEPFQPVKEATQL

Variants of: B1
Assay: raw area under fraction-flipped curve 0-4 h after induction (AUC4h, not background-subtracted), DNA-recorder readout of cleavage of the substrate (dimensionless); higher = more cleavage of the substrate by the protease variant
Conditions: temperature: 34 °C; time window: 0-4 h after rhamnose induction
Method: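 In vivo DNA recorder in E. coli TOP10(DE3) ΔrhaA at 34 °C. Each TEVp single-site mutant (parent TEVp 0) is paired with a single-site variant of the 7-mer TEVs (canonical ENLYFQ|S). The substrate sits between flexible linkers in a Bxb1-sfGFP-TEVs-SsrA fusion, so cleavage stabilises Bxb1 and speeds flipping of a recombination array, read by NGS. The value is the raw area under the fraction-flipped curve over 0-4 h after rhamnose induction (AUC4h), with ≥20 reads per time point. It is not background-subtracted; inactive controls average about 0.047.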
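Also: Bxb1 expression induced with 0.2% (w/v) L-rhamnose at OD600 near 0.5, cultures sampled hourly, flipped fraction per protease–substrate barcode pair counted by paired-end Illumina sequencing.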

Row | Variant | area with substrate ENLYFAS | area with substrate ENLYFES | area with substrate ENLYFHS | area with substrate ENLYFIS | area with substrate ENLYFKS | area with substrate ENLYFMS | area with substrate ENLYFNS | area with substrate ENLYFPS | area with substrate ENLYFRS | area with substrate ENLYFSS | area with substrate ENLYFTS | area with substrate ENLYFWS | area with substrate ENLYFCS | area with substrate ENLYFDS | area with substrate ENLYFFS | area with substrate ENLYFGS | area with substrate ENLYFLS | area with substrate ENLYFVS | area with substrate ENLYFYS
1 | MGESLFKGPRDYNPISSSICHLTNESDGHTTSLYGIGFGPFIITNKRLFRRNNGTLVVQSLHGVFKVKDTTTLQQHLVDGRDMIIIRMPKDFPPFPQKLKFREPQREERICLVTTNFQTKSMSSMVSDTSCTFPSGDGIFWKHWIQTKDGQCGSPLVSTRDGFIVGIHSASNFTNTNNYFTSVPKNFMELLTNQEAQQWVSGWRLNADSVLWGGHKVFMVKPEEPFQPVKEATQL [H47R] | 0.0671 | 0.0548 | 0.0461 | 0.052 | 0.0659 | 0.045 | 0.0637 | 0.063 | 0.0489 | 0.0447 | 0.0617 | 0.0479 | – | – | – | – | – | – | –
2 | MGESLFKGPRDYNPISSSICHLTNESDGHTTSLYGIGFGPFIITQKHLFRRNNGTLVVQSLHGVFKVKDTTTLQQHLVDGRDMIIIRMPKDFPPFPQKLKFREPQREERICLVTTNFQTKSMSSMVSDTSCTFPSGDGIFWKHWIQTKDGQCGSPLVSTRDGFIVGIHSASNFTNTNNYFTSVPKNFMELLTNQEAQQWVSGWRLNADSVLWGGHKVFMVKPEEPFQPVKEATQL [N45Q] | 0.0639 | – | – | 0.0572 | – | 0.0682 | 0.0551 | 0.0565 | 0.0622 | 0.0566 | 0.0575 | 0.067 | 0.0631 | 0.0613 | 0.0629 | 0.0681 | 0.0577 | – | –
3 | MGESLFKGPRDYNPISSSICHLTNESDGHTTSLYGIGFGPFIITDKHLFRRNNGTLVVQSLHGVFKVKDTTTLQQHLVDGRDMIIIRMPKDFPPFPQKLKFREPQREERICLVTTNFQTKSMSSMVSDTSCTFPSGDGIFWKHWIQTKDGQCGSPLVSTRDGFIVGIHSASNFTNTNNYFTSVPKNFMELLTNQEAQQWVSGWRLNADSVLWGGHKVFMVKPEEPFQPVKEATQL [N45D] | 0.0504 | 0.0548 | 0.0569 | 0.0473 | 0.0522 | 0.0557 | 0.0883 | 0.0596 | 0.0642 | 0.0574 | 0.0618 | – | 0.0577 | 0.0612 | 0.0654 | 0.0383 | 0.0667 | 0.067 | 0.0602
4 | MGESLFKGPRDYNPISSSICHLTNESDGHTTSLYGIGFGPFIITNKHLHRRNNGTLVVQSLHGVFKVKDTTTLQQHLVDGRDMIIIRMPKDFPPFPQKLKFREPQREERICLVTTNFQTKSMSSMVSDTSCTFPSGDGIFWKHWIQTKDGQCGSPLVSTRDGFIVGIHSASNFTNTNNYFTSVPKNFMELLTNQEAQQWVSGWRLNADSVLWGGHKVFMVKPEEPFQPVKEATQL [F49H] | 0.032 | 0.0545 | – | 0.0517 | 0.0546 | 0.0631 | – | 0.052 | 0.0796 | 0.0725 | 0.0599 | – | – | – | 0.0602 | – | 0.0679 | – | 0.0576
5 | MGESLFKGPRDYNPISSSICHLTNESDGHTTSLYGIGFGPFIVTNKHLFRRNNGTLVVQSLHGVFKVKDTTTLQQHLVDGRDMIIIRMPKDFPPFPQKLKFREPQREERICLVTTNFQTKSMSSMVSDTSCTFPSGDGIFWKHWIQTKDGQCGSPLVSTRDGFIVGIHSASNFTNTNNYFTSVPKNFMELLTNQEAQQWVSGWRLNADSVLWGGHKVFMVKPEEPFQPVKEATQL [I43V] | 0.0416 | – | 0.0544 | 0.0503 | 0.0573 | – | 0.0697 | 0.0566 | 0.0509 | 0.0738 | 0.0631 | 0.0538 | 0.0548 | – | 0.082 | 0.0493 | 0.0453 | 0.0593 | 0.0538
6 | MGESLFKGPRDYNPISSSICHLTNESDGHTTSLYGIGFGPFIITNKHLFRCNNGTLVVQSLHGVFKVKDTTTLQQHLVDGRDMIIIRMPKDFPPFPQKLKFREPQREERICLVTTNFQTKSMSSMVSDTSCTFPSGDGIFWKHWIQTKDGQCGSPLVSTRDGFIVGIHSASNFTNTNNYFTSVPKNFMELLTNQEAQQWVSGWRLNADSVLWGGHKVFMVKPEEPFQPVKEATQL [R51C] | 0.0609 | 0.0605 | – | 0.0582 | 0.0544 | 0.0712 | 0.068 | 0.0704 | – | 0.0619 | 0.0515 | 0.06 | 0.0609 | – | 0.0706 | 0.0675 | 0.0506 | – | 0.0491
7 | MGESLFKGPRDYNPISSSICHLTNESDGHTTSLYGIGFGPFIITNKHLFRRNNGTLYVQSLHGVFKVKDTTTLQQHLVDGRDMIIIRMPKDFPPFPQKLKFREPQREERICLVTTNFQTKSMSSMVSDTSCTFPSGDGIFWKHWIQTKDGQCGSPLVSTRDGFIVGIHSASNFTNTNNYFTSVPKNFMELLTNQEAQQWVSGWRLNADSVLWGGHKVFMVKPEEPFQPVKEATQL [V57Y] | 0.0596 | 0.0518 | – | 0.0554 | – | 0.0617 | 0.0569 | 0.0564 | 0.0588 | 0.039 | 0.0569 | – | 0.0557 | 0.0493 | 0.0779 | 0.057 | – | 0.0628 | 0.0673
8 | MGESLFKGPRDYNPISSSICHLTNESDGHTTSLYGIGFGPFIITNKHLFRRNNGTLMVQSLHGVFKVKDTTTLQQHLVDGRDMIIIRMPKDFPPFPQKLKFREPQREERICLVTTNFQTKSMSSMVSDTSCTFPSGDGIFWKHWIQTKDGQCGSPLVSTRDGFIVGIHSASNFTNTNNYFTSVPKNFMELLTNQEAQQWVSGWRLNADSVLWGGHKVFMVKPEEPFQPVKEATQL [V57M] | 0.0673 | 0.0662 | 0.0513 | – | 0.0252 | 0.0609 | 0.0658 | 0.0576 | 0.0722 | – | 0.0609 | – | – | 0.0573 | 0.0755 | 0.0665 | – | 0.0416 | –
9 | MGESLFKGPRDYNPISSSICHLTNESDGHTTSLYGIGFGPFIITNKHLFRRNNGTLKVQSLHGVFKVKDTTTLQQHLVDGRDMIIIRMPKDFPPFPQKLKFREPQREERICLVTTNFQTKSMSSMVSDTSCTFPSGDGIFWKHWIQTKDGQCGSPLVSTRDGFIVGIHSASNFTNTNNYFTSVPKNFMELLTNQEAQQWVSGWRLNADSVLWGGHKVFMVKPEEPFQPVKEATQL [V57K] | 0.0716 | 0.0619 | – | 0.0796 | 0.0633 | 0.0625 | – | 0.0574 | 0.061 | 0.0579 | – | 0.0531 | 0.0543 | – | 0.0708 | 0.0511 | – | 0.0668 | –
